Source: PubChem BioAssay AID504339 (National Center for Advancing Translational Sciences (NCATS), 2011)
The campaign covered roughly 390,000 compounds. About 17,000 (4.4%) were called active. The inconclusive results got no clear call from the source; some entries with a clear call stand among them for comparison. Calls come from the whole dose curve; as a rule, active = well fitted inhibition curve with a large enough effect; inconclusive = small, poorly fitted or top-dose-only effect; inactive = no such curve, though single readings can be large or run the other way. Potencies of inconclusive entries are doubtful fits and often do not repeat.

Target: Lysine-specific demethylase 4A (Homo sapiens) (UniProt O75164)
Sequence of UniProt O75164 (O75164 whole entry, looked up, the tested form may be a part): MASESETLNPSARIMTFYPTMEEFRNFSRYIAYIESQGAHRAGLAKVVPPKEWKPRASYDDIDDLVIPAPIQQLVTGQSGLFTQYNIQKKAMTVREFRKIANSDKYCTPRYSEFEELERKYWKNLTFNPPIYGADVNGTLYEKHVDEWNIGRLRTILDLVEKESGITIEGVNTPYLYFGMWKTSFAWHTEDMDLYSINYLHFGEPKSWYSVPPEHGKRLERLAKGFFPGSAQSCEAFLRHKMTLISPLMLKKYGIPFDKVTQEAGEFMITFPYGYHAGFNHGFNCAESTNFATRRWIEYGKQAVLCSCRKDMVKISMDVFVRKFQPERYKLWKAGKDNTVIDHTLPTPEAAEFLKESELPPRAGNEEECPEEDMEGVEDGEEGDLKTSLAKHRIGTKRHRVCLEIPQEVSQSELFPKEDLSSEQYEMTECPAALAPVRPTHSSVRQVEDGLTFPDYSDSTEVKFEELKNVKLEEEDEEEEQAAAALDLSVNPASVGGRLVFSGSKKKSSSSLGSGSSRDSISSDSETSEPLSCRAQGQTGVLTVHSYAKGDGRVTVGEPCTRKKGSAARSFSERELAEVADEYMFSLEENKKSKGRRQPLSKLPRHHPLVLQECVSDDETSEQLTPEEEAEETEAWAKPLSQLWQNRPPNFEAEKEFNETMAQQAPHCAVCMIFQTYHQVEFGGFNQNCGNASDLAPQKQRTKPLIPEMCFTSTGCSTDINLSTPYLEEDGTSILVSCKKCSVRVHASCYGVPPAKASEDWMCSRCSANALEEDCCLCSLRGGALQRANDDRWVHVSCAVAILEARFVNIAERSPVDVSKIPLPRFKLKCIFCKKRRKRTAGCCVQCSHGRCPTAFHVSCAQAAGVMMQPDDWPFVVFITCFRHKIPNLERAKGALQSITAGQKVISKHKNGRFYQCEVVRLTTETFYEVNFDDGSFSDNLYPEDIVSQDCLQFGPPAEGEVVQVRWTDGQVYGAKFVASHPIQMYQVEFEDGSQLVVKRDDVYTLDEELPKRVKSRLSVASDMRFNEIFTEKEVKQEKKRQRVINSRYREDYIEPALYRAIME
Assay: qHTS Assay for Inhibitors of JMJD2A-Tudor Domain; note: nearly all actives have a fitted effect of over 50% in size
Settings: AlphaScreen JMJD2A-Tudor / H3K4me3 peptide binding; series mostly up to 114 µM
Potency is the fitted concentration of half-maximal effect; tags give direction and shape of the fitted curve.

Potency, active:
CC1CN(CCCOc2ccc([N+](=O)[O-])cc2)CC(C)O1 (stereo not given) 14.1 µM, CCOc1ccc(CN2CCN(S(=O)(=O)c3ccc(NC(C)=O)cc3)CC2)cc1 7.94 µM, COc1cccc(-c2sc3ccccc3c2-c2ccc(OCCN(C)C)cc2)c1 44.7 µM, COCCCNC(=S)NNC(=O)c1ccccn1 20 µM, COc1ccc(Nc2ccc([N+](=O)[O-])cc2[N+](=O)[O-])cc1 50.1 µM, CC1(C)OC(=O)C2(Cc3ccc(Br)cc3N3CCCCC32)C(=O)O1 (stereo not given) 56.2 µM, CCc1ccc(NC2=CC(=O)C(=O)c3ccccc32)cc1 44.7 µM, S=c1[nH]nc(CCc2ccccc2)n1-c1ccccc1 11.2 µM, COc1cccc(/C(O)=C/C(=O)C(=O)Nc2ccc(S(=O)(=O)NC(C)=O)cc2)c1 8.91 µM, COc1ccc(NC(=O)CN(C)C(=O)c2cc3c(s2)CCC3)cc1 14.1 µM, S=c1[nH]nc(-c2cnccn2)n1-c1ccccc1 31.6 µM, COc1ccc(OC)c(-n2nnnc2SCC(=O)N2CCN(C(=O)c3ccco3)CC2)c1 20 µM, Cn1c(=O)c(-c2cc(=O)[nH][nH]2)c(O)c2ccccc21 35.5 µM, CN(C)CCN(C(=O)c1ccccc1Cl)c1nc2c(Cl)cccc2s1 25.1 µM

Potency, inactive:
Cc1ccc(S(=O)(=O)N2CCN(CC(=O)N/N=C/c3ccco3)CC2)cc1, COc1cc(-c2cc(C(=O)Nc3cccc(C(C)=O)c3)c3ccccc3n2)cc(OC)c1OC, CCOC(=O)c1[nH]c2ccc(OC)cc2c1NC(=S)N1CCN(C(=O)OCC)CC1, CC1(C)CC(=O)C2=C(C1)NC(SCC(=O)Nc1ccccc1)=C(C#N)C21CCCCC1, Cc1nn(-c2ccccc2)c(N2CCCC2)c1/C=N/NC(=O)c1ccccc1O, Cc1ccccc1C(=O)c1cccn1CC(=O)NCC1CCCO1 (stereo not given), CCOc1cccc2sc(NC(=O)c3ccc(S(=O)(=O)N4CCCc5ccccc54)cc3)nc12, Cc1ccc(S(=O)(=O)NC(=O)N2CCN(Cc3c(F)cccc3Cl)CC2)cc1, CCC[C@@H](CN[C@@H](CNC)[C@H](C)CC)NCC1CCC(C(C)(C)C)CC1 (stereo not given in full), O=C(NC1CCS(=O)(=O)C1)c1ccc(Br)s1 (stereo not given), Cc1ccc(-c2cn3c(n2)sc2cc(C(=O)NCCC4=CCCCC4)ccc23)c(C)c1, CC(=O)OC1=CN(Cc2ccccc2)S(=O)(=O)c2ccccc21, O=C(CCNNC(=O)c1ccncc1)NCc1ccccc1, COc1ccc(NC(=O)CSc2nc3ncccc3[nH]2)cc1OC, COc1cc(OC)cc(C(=O)NC2CC(C)(C)NC(C)(C)C2)c1, CCOC(=O)c1sc(NS(=O)(=O)c2ccc(C)cc2)nc1C, Cc1nc2c(c(C)c1CCC(=O)N1CCN(c3ccccc3)CC1)c(=O)n(C)c(=O)n2C

Potency, inconclusive:
O=C(CSc1ccc(Br)c2cccc(Cl)c12)Nc1ccc(S(=O)(=O)Nc2nccs2)cc1 25.1 µM [inhibitor, full curve], O=S(=O)(NCC(c1ccco1)N1CCN(c2ccc(F)cc2)CC1)c1ccccc1 (stereo not given) 56.2 µM [inhibitor, partial curve], O=C(COC(=O)c1cc(Cl)ccc1[N+](=O)[O-])NCc1ccc(Cl)cc1Cl 11.2 µM [inhibitor, full curve], O=C1CC(c2cc(F)ccc2F)c2cc3c(cc2N1)CCC3 (stereo not given) 7.08 µM [inhibitor, full curve, poor fit], COc1cccc(C2=Nn3c(nnc3-c3ccccc3C)SC2)c1 20 µM [inhibitor, partial curve, poor fit], CCCCC[n+]1cccc2c3ccccc3ccc21 22.4 µM [inhibitor, partial curve, poor fit], Cc1onc(-c2ccccc2)c1CNC(=O)Nc1ccc(F)cc1F 20 µM [inhibitor, full curve], Cc1cccc(NC(=S)N(C)Cc2cn(C)c3ccccc23)c1 17.8 µM [inhibitor, full curve], Cc1ccc(S(=O)OCC(=O)Nc2cc(Cl)ccc2N2CCOCC2)cc1 (stereo not given) 14.1 µM [inhibitor, full curve], CCCSc1cc(N2CCN(C)CC2)nc(-c2ccc(OC)cc2)n1 79.4 µM [inhibitor, partial curve], CC(=O)Nc1ccc(NC(=S)NC(=O)/C=C/c2ccco2)cc1 89.1 µM [inhibitor, partial curve], Cc1cccc(C)c1OCCCCn1c(C2CC(=O)N(c3ccc(F)cc3)C2)nc2ccccc21 (stereo not given) 79.4 µM [inhibitor, partial curve], CC(=O)c1ccc(N2CCN(C(=O)c3ccc4[nH]c(C)c(C)c4c3)CC2)cc1 50.1 µM [inhibitor, partial curve], COc1ccc(Nc2ncccc2C(=O)Nc2ccccc2)cc1 3.98 µM [inhibitor, single point], CCOC(=O)c1c(C)[nH]c(C)c1S(=O)(=O)N1CCC(C(=O)N2CCN(c3cccc(C)c3)C(C)C2)CC1 (stereo not given) 56.2 µM [inhibitor, partial curve], N=C1/C(=C\c2ccc(OC(=O)c3ccco3)cc2)C(=O)N=C2SC(N3CCCCC3)=NN12 44.7 µM [inhibitor, full curve, poor fit], Cc1cc(/C=C(\C#N)C(=O)NCC2CCCO2)c(C)n1-c1ccc(Cl)cc1 (stereo not given) 56.2 µM [inhibitor, partial curve], C=C1CCN(c2ccc(C(=O)NCc3ccc(C)cc3)cc2[N+](=O)[O-])CC1 44.7 µM [inhibitor, partial curve], O=C(NC1CC1)c1ccc(NC(=O)C2CCC2)cc1 28.2 µM [inhibitor, partial curve], Cc1cc([N+](=O)[O-])c(N2CCC[C@@H]2C(=O)O)c([N+](=O)[O-])c1 89.1 µM [inhibitor, single point], O=C(NC1CCCCC1)C(c1ccccc1)N1CCc2ccccc21 (stereo not given) 44.7 µM [inhibitor, partial curve], O=C(Nc1nc2c(s1)CCCC2)c1ccc2ncsc2c1 63.1 µM [inhibitor, partial curve], CCNc1nc(NCC)n2c(SCC(=O)Nc3ccc(CC)cc3)nnc2n1 56.2 µM [inhibitor, partial curve], COc1ccc(CCNc2oc(COc3ccc(Br)cc3)nc2C#N)cc1OC 10 µM [inhibitor, full curve, poor fit], C/C(=N\NS(=O)(=O)c1cccc([N+](=O)[O-])c1)c1cc2ccccc2o1 89.1 µM [inhibitor, single point], CCOc1ccc(S(=O)(=O)NCC(c2ccc(N(C)C)cc2)N2CCCC2)cc1 (stereo not given) 56.2 µM [inhibitor, partial curve], Cn1cnc2cc(NCc3ccccc3Cl)ccc21 50.1 µM [inhibitor, partial curve], O=C(COC(=O)c1ccc(Br)o1)Nc1ccc(F)cc1[N+](=O)[O-] 44.7 µM [inhibitor, partial curve], Cc1ccc(NC(=O)COC(=O)COc2ccc(Cl)cc2C)c([N+](=O)[O-])c1 14.1 µM [inhibitor, full curve], NC(=O)CC(NC(=O)c1ccccc1)c1ccc(NCCc2cccc(F)c2)c([N+](=O)[O-])c1 (stereo not given) 63.1 µM [inhibitor, partial curve, poor fit], Cc1cc2c(cc1C)[n+](C)cn2CC(O)COCc1ccccc1 (stereo not given) 89.1 µM [inhibitor, single point], CCOP(=O)(OCC)C(NC(=O)c1cc([N+](=O)[O-])cc([N+](=O)[O-])c1)C(F)(F)F (stereo not given) 50.1 µM [inhibitor, partial curve, poor fit], CC1CC=CC2C1C(=O)N(Cc1ccccc1)C2c1cccc([N+](=O)[O-])c1 (stereo not given) 79.4 µM [inhibitor, partial curve], CN(C)c1ccc(NC(=O)CCCc2ccccc2)cc1 39.8 µM [inhibitor, partial curve], Cc1ccc(C)c(S(=O)(=O)C(C#N)c2nc3ccccc3nc2N2CCOCC2)c1 (stereo not given) 50.1 µM [inhibitor, partial curve], COc1ccc(C(=O)/C(C#N)=N/Nc2cccc([N+](=O)[O-])c2)cc1 50.1 µM [inhibitor, partial curve], Cc1cc(C)c(S(=O)(=O)Nc2ccc3oc4c(c3c2)CCCC4)cc1C 39.8 µM [inhibitor, partial curve], COc1ccc(N(CC(=O)Nc2cc(C)ccc2C)S(=O)(=O)c2ccccc2[N+](=O)[O-])c(OC)c1 44.7 µM [inhibitor, partial curve], O=C(NCCCN1CCN(c2ccccc2)CC1)c1nnc(Cc2c(F)cccc2Cl)o1 31.6 µM [inhibitor, partial curve]
